# Laboratory results from PubChem BioAssay AID624173 (National Center for Advancing Translational Sciences (NCATS), 2012).
# Out of some 410,000 compounds screened, about 490 (0.12%) were called active. This list was built around the results that the source calls inconclusive (neither active nor inactive); the mix of calls is not that of the screen. Calls follow the shape of the dose curve; as a rule, active = well fitted inhibition curve with a large enough effect; inconclusive = small, poorly fitted or top-dose-only effect; inactive = flat fitted curve, though single readings scatter. Potencies beside an inconclusive call are fits to weak or partial responses and may not hold up.
# Molecular target: pyruvate kinase (Trypanosoma brucei) (UniProt Q57TT1)
# Assay: qHTS of Trypanosoma Brucei Inhibitors; also: nearly all actives have a fitted effect of over 50% in size
# Conditions: TbPYK enzyme, Kinase-Glo Plus ATP luminescence, 45 min; series mostly up to 76.8 µM
# How it was run: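 Assay buffer: 50 mM TEA pH 7.2, 100 mM KCl, 10 mM MgCl2, 0.05% BSA, 0.01% Tween-20. Pyruvate kinase from T. brucei plus substrate met compound, then ADP (130 uM final). Luminescence was read post 45 min RT.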
# Potency is read from the fitted curve at half-maximal effect; tags tell the direction and shape of the fitted curve.
row,SMILES,Potency
1,CCOc1ccc(-c2nc(C)c(C(C)=O)n2O)cc1,"inconclusive: 22.4 µM [inhibitor, partial curve, poor fit]"
2,CC1=CC(=Nc2c(C)n(C)n(-c3ccccc3)c2=O)C=C(C)C1=O,"inconclusive: 28.2 µM [inhibitor, partial curve]"
3,CCc1nnc(NC(=O)CSc2nncc(=O)n2N)s1,inactive
4,CCOC(=O)/C=C/C(=O)Nc1cccc([N+](=O)[O-])c1,"inconclusive: 31.6 µM [inhibitor, single point]"
5,N#Cc1c(N)sc(=S)c2c1CCCCC2,"inconclusive: 14.1 µM [inhibitor, partial curve]"
6,N#Cc1c(NC(=O)Cn2nc(C(F)(F)F)c3c2CCCC3)sc2c1CCC2,"inconclusive: 25.1 µM [inhibitor, partial curve, poor fit]"
7,CCOC(=O)c1oc2nc3c(cc2c1N)COC(C)(C)C3,inactive
8,CCOc1cc(N2CCOCC2)c(OCC)cc1NC(C)C(=O)N1CCN(CC)CC1 (stereo unspecified),inactive
9,O=C(CN1C(=O)S/C(=C\c2cccs2)C1=O)Nc1ccc(O)cc1C(=O)O,"inconclusive: 22.4 µM [inhibitor, partial curve, poor fit]"
10,Cc1ccccc1-n1c(-c2ccc(Cl)cc2)cnc1SCC(=O)NC1CCS(=O)(=O)C1 (stereo unspecified),"inconclusive: 11.2 µM [inhibitor, partial curve, poor fit]"
11,CC(OC(=O)C1=Cc2ccccc2OC1)C(=O)NCC1CCCO1 (stereo unspecified),"inconclusive: 10 µM [inhibitor, partial curve, poor fit]"
12,c1ccc(-c2cc(-c3ccccc3)on2)cc1,"inconclusive: 35.5 µM [inhibitor, partial curve, poor fit]"
13,Cc1nn(CCCC(=O)NCCc2ccccc2)c(=O)c2nccn12,inactive
14,CCc1cccc(C)c1Nc1c(-c2ccc(SC)cc2)nc2sccn12,inactive
15,CCCn1cc2c(c1-c1ccc(C)cc1)c(=O)n(C)c(=O)n2C,inactive
16,COc1ccc(-n2c(COc3ccc(Cl)cc3Cl)n[nH]c2=S)cc1,"inconclusive: 14.1 µM [inhibitor, partial curve]"
17,O=C(CSCc1ccc(Cl)cc1)Nc1ccc2c(c1)OCO2,inactive
18,O=C(COC(=O)c1ccccc1)Nc1ncc([N+](=O)[O-])s1,"inconclusive: 11.2 µM [inhibitor, partial curve]"
19,COC(=O)c1ccccc1-c1c2ccc(=N)cc-2oc2cc(N)ccc12,"inconclusive: 31.6 µM [inhibitor, partial curve, poor fit]"
20,CCc1cccc(C)c1NC(=S)N(Cc1cccnc1)Cc1ccco1,"inconclusive: 50.1 µM [inhibitor, single point]"
21,COc1ccc(CCNC(=O)c2c(O)nc3ccccn3c2=O)cc1OC,inactive

row,SMILES,Potency
1,COC(=O)c1c(C)n(Cc2ccccc2)c2ccc(O)cc12,"inconclusive: 39.8 µM [inhibitor, partial curve, poor fit]"
2,CCOc1ccc(NC(=O)c2oc3ccccc3c2NC(=O)C(C)(C)C)cc1,inactive
3,N#C/C(=C\c1cccs1)C(=O)c1ccccc1Cl,"inconclusive: 39.8 µM [inhibitor, single point]"
4,Cc1ccccc1OCc1n[nH]c(=S)n1Cc1ccccc1,"inconclusive: 5.01 µM [inhibitor, partial curve, poor fit]"
5,COc1cc(NC2c3ccccc3C(=O)N2c2ccc(C)cn2)cc(OC)c1OC (stereo unspecified),"inconclusive: 35.5 µM [inhibitor, single point]"
6,Cc1cccc(NC(=O)CSc2ccc(-c3sc(-c4ccccc4)nc3C)nn2)c1C,inactive
7,O=C(c1cc2ccc3cccnc3c2[nH]1)N1CCCCC1,"inconclusive: 39.8 µM [inhibitor, partial curve]"
8,Cc1ccc(Nc2nnns2)cc1,"inconclusive: 11.2 µM [inhibitor, partial curve]"
9,Cc1sc2ccccc2[n+]1CC(=O)O,"inconclusive: 17.8 µM [inhibitor, partial curve, poor fit]"
10,Cc1c(Br)c(O)c(Br)c(O)c1/C=N/n1c(-c2ccccc2)n[nH]c1=S,"inconclusive: 15.8 µM [inhibitor, partial curve, poor fit]"
11,O=C1C=C(c2ccc(Cl)cc2)C(=O)N1Nc1ccccc1,"inconclusive: 7.94 µM [inhibitor, full curve]"
12,Cc1ccc(Oc2ccc(/C=N/O)cn2)cc1,"inconclusive: 28.2 µM [inhibitor, single point]"
13,Cc1ccc([N+](=O)[O-])cc1S(=O)(=O)n1ccnc1C,"inconclusive: 35.5 µM [inhibitor, single point]"
14,COc1ccc(OCc2ccc(C(=O)O)cc2)cc1,inactive
15,Cc1ccc(-c2cc3c(nn2)-c2ccccc2C3=O)cc1,"inconclusive: 22.4 µM [inhibitor, partial curve]"
16,O=C(/C=C/c1ccco1)NCc1ccc(F)cc1,"inconclusive: 28.2 µM [inhibitor, single point]"
17,COc1ccc(C(=O)N2CCC(C(=O)N3CCN(Cc4ccccc4)CC3)CC2)cc1,inactive
18,CNc1nc(-c2ccc3c(c2)CCN3C(=O)c2ccccc2F)c(C)s1,"inconclusive: 20 µM [inhibitor, partial curve, poor fit]"
19,COc1ccc(C)cc1NC(c1nnc(-c2ccccc2)o1)c1ccc(F)cc1Cl (stereo unspecified),inactive
20,S=c1[nH]nc(Cc2cccc3ccccc23)n1-c1ccccc1,active: 5.01 µM
21,Cc1ccc(/C=C/C(=O)NCC2COc3ccccc3O2)o1 (stereo unspecified),"inconclusive: 22.4 µM [inhibitor, partial curve]"

row,SMILES,Potency
1,O=C(NC1CC(=O)N(c2ccc(F)cc2)C1)C1CCCC1 (stereo unspecified),inactive
2,Cc1ccc(S(=O)(=O)CCC(=O)Nc2nc(-c3ccncc3)cs2)cc1,"inconclusive: 31.6 µM [inhibitor, single point]"
3,Cc1ccn2c(Nc3ccccc3C)c(-c3ccncc3)nc2c1,inactive
4,CC1(C)Cc2c(sc3nc(SCC(=O)O)[nH]c(=O)c23)CO1,"inconclusive: 35.5 µM [inhibitor, partial curve, poor fit]"
5,COc1ccccc1CCNC(=O)Cn1ccc2cc(S(=O)(=O)N3CCCCC3)ccc21,inactive
6,CC(C)(C)SCCNC(=O)/C=C/c1ccc([N+](=O)[O-])cc1,inactive
7,CN(C)c1ccc(C(=S)N2CCN(Cc3ccccc3)CC2)cc1,"inconclusive: 15.8 µM [inhibitor, partial curve, poor fit]"
8,Cc1ccc(C)c(N2CCN(C(=O)c3ccc4nsnc4c3)CC2)c1,inactive
9,O=C1COc2ccc(C(=O)CSc3nnc(Cc4cccs4)n3-c3ccc(Cl)cc3)cc2N1,"inconclusive: 25.1 µM [inhibitor, partial curve]"
10,COCCCN=C1NN=C(c2cc(C)n(Cc3ccccc3Cl)c2C)CS1,"inconclusive: 39.8 µM [inhibitor, single point]"
11,CCc1ccc(NC(=O)c2cccc(N3CCCS3(=O)=O)c2)cc1,inactive
12,COc1ccc(S(=O)(=O)NCCc2sc(-c3cccnc3)nc2C)cc1OC,inactive
13,COc1ccc(OC)c(Nc2nc(=O)c3cccnc3s2)c1,active: 35.5 µM
14,CCOC(=O)N1CCN(C(=O)c2ccc3nc(C)sc3c2)CC1,"inconclusive: 35.5 µM [inhibitor, single point]"
15,Cc1cccc(/C(N)=N/OC(=O)c2ccc(F)cc2)c1,"inconclusive: 25.1 µM [inhibitor, partial curve, poor fit]"
16,S=c1[nH]nc(-c2cccnc2)n1/N=C/C=C/c1ccccc1,"inconclusive: 8.91 µM [inhibitor, partial curve]"
17,Cc1ccc(C(=O)Nc2cc3ccccc3oc2=O)cc1,"inconclusive: 31.6 µM [inhibitor, partial curve]"
18,CC(C)N(CC#CC(O)(c1ccccc1)c1ccccc1)CCO,inactive
19,C[C@@H]1CN(S(=O)C(C)(C)C)[C@@H](CCO)/C1=C\CCO (stereo partly specified),inactive
